The results in this text go back to the supplement of paper PMC4967469.

The IC50 comes from the fitted curve, where viability falls to half of the control; a limit (>, <) means that the fit lies beyond the doses tested. AUC, from the same fit, is the share of area under the viability curve across the 256-fold dose range; it is 1 without any effect and falls as sensitivity rises. For some of these results: A top dose marked as inferred comes from the curve model; the source does not state it.

One may read the IC50 as the midpoint of a concentration-inhibition curve.

What all share (test): Viability of human cancer cell lines after 72 h of drug (GDSC screen)
Compound in one assay: CC(=O)Nc1cccc(-n2c(=O)n(C3CC3)c(=O)c3c(Nc4ccc(I)cc4F)n(C)c(=O)c(C)c32)c1 [Trametinib]
The following applies: top dose 1 µM. The method, then:
(§1)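 Human cancer cell lines in 384-well plates, medium with 10% serum, drug for 72 h over a 256-fold dose range (nine 2-fold or five 4-fold steps up to the top dose). Adherent lines were fixed and stained with the nucleic acid dye Syto60, suspension lines read with resazurin; signal relative to control wells, capped at 0 and 100%. One two-parameter sigmoid per drug and line, fitted in a mixed model over all curves with the slope shared within a line.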

Compound in the next assay: CCc1cncnc1N1CCN(Cc2nc3ccc(C(F)(F)F)cc3[nH]2)CC1 [PF-4708671]
The following applies: top dose 10 µM; top dose inferred. On the procedure: as §1

Compound in a further assay: CCNC(=O)C[C@@H]1N=C(c2ccc(Cl)cc2)c2cc(OC)ccc2-n2c(C)nnc21 [I-BET-762]
The note with it: top dose 20 µM; top dose inferred. The method, then: as §1

Compound in a further assay: COc1cc2nccc(Oc3ccc(NC(=O)Nc4cc(C)on4)c(Cl)c3)c2cc1OC [AV-951]
The note with it: top dose 0.128 µM; top dose inferred. The method, then: as §1

Compound in a further assay: O=C(NC(COc1ccc2[nH]c(=O)[nH]c2c1)c1ccccc1)c1cccn(Cc2ccc(F)c(F)c2)c1=O [KIN001-244]
The note with it: top dose 20 µM; top dose inferred. On the procedure: as §1

Compound in another assay: CCN1CCN(Cc2ccc(NC(=O)c3ccc(C)c(/C=C/c4cnc5[nH]ccc5c4OC)c3)cc2C(F)(F)F)CC1 [HG-6-64-1]
The note with it: top dose 5.12 µM; top dose inferred. The method, then:
as §1

With “NCI-H2066 (small cell lung carcinoma, adherent)”, in the assay with Trametinib, the AUC was found to be 0.944 and the IC50 was above 1 µM. Moreover, in the assay with PF-4708671, the AUC was found to be 0.98 and the IC50 is above 10 µM.

Take NCI-N87 (stomach, adherent): in the assay with Trametinib, the AUC turned out to be 0.888 and the IC50 is above 1 µM. Also, in the assay with PF-4708671, the AUC turned out to be 0.958 and the IC50 was above 10 µM.

Consider OACM5-1 (oesophagus, semi-adherent), for which the AUC with Trametinib is 0.985; with I-BET-762, 0.653; with PF-4708671 it was 0.97; with AV-951 it was 0.941; with KIN001-244, 0.521. For the same cell line, the IC50 with Trametinib was above 1 µM; in the assay with I-BET-762, 3.52 µM; in the assay with PF-4708671, above 10 µM; in the assay with AV-951, above 0.128 µM; in the assay with KIN001-244, 1.43 µM.

Consider OACp4C (oesophagus, adherent), for which the AUC in the assay with Trametinib came out at 0.386; with I-BET-762, 0.777; with PF-4708671, 0.968; in the assay with AV-951 it was 0.98; with KIN001-244, 0.72. Also, the IC50 in the assay with Trametinib was 0.0284 µM; in the assay with I-BET-762, 9.74 µM; in the assay with PF-4708671, above 10 µM; with AV-951, above 0.128 µM; with KIN001-244, 6.02 µM.

For OC-314 (ovary, adherent), the AUC with Trametinib came out at 0.806; in the assay with I-BET-762, 0.929; in the assay with PF-4708671 it was 0.946; with AV-951, 0.983; with KIN001-244, 0.884. Moreover, the IC50 is 0.425 µM with Trametinib; above 20 µM with I-BET-762; above 10 µM with PF-4708671; above 0.128 µM in the assay with AV-951; 16.3 µM in the assay with KIN001-244.

For OV-7 (ovary, adherent), the AUC with Trametinib was determined as 0.543; with I-BET-762, 0.931; in the assay with PF-4708671, 0.916; with AV-951 it was 0.972; with KIN001-244 it was 0.8. In addition, the IC50 with Trametinib was 0.0868 µM; with I-BET-762 it was above 20 µM; with PF-4708671 it was above 10 µM; with AV-951, above 0.128 µM; with KIN001-244, 16.3 µM.

Consider PWR-1E (prostate, adherent), for which, in the assay with Trametinib, the AUC worked out at 0.888 and the IC50 is above 1 µM. Moreover, in the assay with PF-4708671, the AUC amounted to 0.97 and the IC50 is above 10 µM.

For RCH-ACV (B-cell leukaemia, suspension), in the assay with Trametinib, the AUC was determined as 0.983 and the IC50 is above 1 µM. In the assay with PF-4708671, the AUC is 0.93 and the IC50 is above 10 µM.

In the case of RH-18 (rhabdomyosarcoma, adherent), the results for the AUC with Trametinib and in the assay with PF-4708671 were 0.767 and 0.918, respectively. The IC50 in the assay with Trametinib was 0.425 µM; in the assay with PF-4708671 it was above 10 µM.

With SK-GT-2 (stomach, adherent), in the assay with Trametinib, the AUC stood at 0.67 and the IC50 came to 0.191 µM. In addition, in the assay with PF-4708671, the AUC was 0.965 and the IC50 is above 10 µM.

Regarding SK-MEL-31 (melanoma, adherent), in the assay with Trametinib, the AUC stood at 0.889 and the IC50 was above 1 µM. Moreover, in the assay with PF-4708671, the AUC worked out at 0.965 and the IC50 was above 10 µM.

In the case of “SKM-1 (haematopoietic neoplasm, suspension)”, in the assay with Trametinib, the AUC was 0.097 and the IC50 was below 0.00391 µM. In addition, in the assay with PF-4708671, the AUC worked out at 0.939 and the IC50 was above 10 µM.

SNU-1040 (large intestine, adherent): the AUC with Trametinib was found to be 0.884; in the assay with I-BET-762 it was 0.839; in the assay with AV-951, 0.978; with KIN001-244, 0.781. Also, the 50% inhibitory concentration (IC50) with Trametinib is above 1 µM; in the assay with I-BET-762 it was above 20 µM; in the assay with AV-951 it was above 0.128 µM; with KIN001-244, 11.4 µM.

In the case of SUP-B8 (B-cell leukaemia, suspension), in the assay with Trametinib, the AUC is 0.972 and the IC50 is above 1 µM. Further, in the assay with PF-4708671, the AUC amounted to 0.978 and the IC50 was above 10 µM.

Regarding TC-YIK (cervix, suspension), in the assay with Trametinib, the AUC is 0.808 and the IC50 turned out to be 0.436 µM. For the same cell line, in the assay with PF-4708671, the AUC turned out to be 0.923 and the IC50 was above 10 µM.

On to VM-CUB-1 (bladder, adherent), for which the AUC came to 0.84 with HG-6-64-1; 0.973 with I-BET-762; 0.985 in the assay with PF-4708671; 0.989 with AV-951; 0.933 in the assay with KIN001-244. Moreover, the IC50 in the assay with HG-6-64-1 was 3.37 µM; with I-BET-762, above 20 µM; with PF-4708671, above 10 µM; in the assay with AV-951, above 0.128 µM; with KIN001-244 it was above 20 µM.

Regarding “VMRC-LCD (lung adenocarcinoma, adherent)”, in the assay with Trametinib, the AUC was 0.988 and the IC50 is above 1 µM. Moreover, in the assay with PF-4708671, the AUC was found to be 0.958 and the IC50 is above 10 µM.

For the cell line ZR-75-30 (breast, adherent), in the assay with Trametinib, the AUC stood at 0.981 and the IC50 was above 1 µM. Moreover, in the assay with PF-4708671, the AUC was found to be 0.954 and the IC50 is above 10 µM.
